# Substitutions are numbered along the chain they refer to; changes in the protein carry UniProt numbers. The list shows a part of the results.
# T1: RBFOX1 RRM (Homo sapiens, UniProt Q9NWB1 109-208)
# T1 sequence: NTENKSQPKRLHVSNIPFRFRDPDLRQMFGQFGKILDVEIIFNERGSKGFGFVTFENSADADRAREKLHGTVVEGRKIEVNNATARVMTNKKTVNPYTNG
# B1: CAUAGCC (DNA:RNA)
# RNA: GGGAGACCGGAAUUCAGAUUGUCCCAUAGCCUUAAAUCCCGUCGUAGCCACCA
# DNA 1: CAATCTGAATTCCGGTCTCCC
# DNA 2: TGGTGGCTACGACGGGATT
# B2: GUGACUC (DNA:RNA)
# RNA: B1 RNA with C25G, A26U, U27G, G29C, C30U
# DNA 1: CAATCTGAATTCCGGTCTCCC
# DNA 2: TGGTGGCTACGACGGGATT
# B3: UAAGCGA (DNA:RNA)
# RNA: B1 RNA with C25U, U27A, A28G, G29C, C30G, C31A
# DNA 1: CAATCTGAATTCCGGTCTCCC
# DNA 2: TGGTGGCTACGACGGGATT
# B4: GAGUCGA (DNA:RNA)
# RNA: B1 RNA with C25G, U27G, A28U, G29C, C30G, C31A
# DNA 1: CAATCTGAATTCCGGTCTCCC
# DNA 2: TGGTGGCTACGACGGGATT
# B5: AACUCGU (DNA:RNA)
# RNA: B1 RNA with C25A, U27C, A28U, G29C, C30G, C31U
# DNA 1: CAATCTGAATTCCGGTCTCCC
# DNA 2: TGGTGGCTACGACGGGATT
# B6: GAACGUU (DNA:RNA)
# RNA: B1 RNA with C25G, U27A, A28C, C30U, C31U
# DNA 1: CAATCTGAATTCCGGTCTCCC
# DNA 2: TGGTGGCTACGACGGGATT
# B7: GUGCUGG (DNA:RNA)
# RNA: GGGAGACCGGAAUUCAGAUUGUCCGUGCUGGUUAAAUCCCGUCGUAGCCACCA
# DNA 1: CAATCTGAATTCCGGTCTCCC
# DNA 2: TGGTGGCTACGACGGGATT
# B8: GUUGAUA (DNA:RNA)
# RNA: B7 RNA with G27U, C28G, U29A, G30U, G31A
# DNA 1: CAATCTGAATTCCGGTCTCCC
# DNA 2: TGGTGGCTACGACGGGATT
# B9: ACGUACU (DNA:RNA)
# RNA: B1 RNA with C25A, A26C, U27G, A28U, G29A, C31U
# DNA 1: CAATCTGAATTCCGGTCTCCC
# DNA 2: TGGTGGCTACGACGGGATT
# B10: CACACGU (DNA:RNA)
# RNA: B1 RNA with U27C, G29C, C30G, C31U
# DNA 1: CAATCTGAATTCCGGTCTCCC
# DNA 2: TGGTGGCTACGACGGGATT
# B11: ACGUAUC (DNA:RNA)
# RNA: B1 RNA with C25A, A26C, U27G, A28U, G29A, C30U
# DNA 1: CAATCTGAATTCCGGTCTCCC
# DNA 2: TGGTGGCTACGACGGGATT
# B12: GAACCAG (DNA:RNA)
# RNA: B7 RNA with U26A, G27A, U29C, G30A
# DNA 1: CAATCTGAATTCCGGTCTCCC
# DNA 2: TGGTGGCTACGACGGGATT
# B13: ACUCGCA (DNA:RNA)
# RNA: B1 RNA with C25A, A26C, A28C, C31A
# DNA 1: CAATCTGAATTCCGGTCTCCC
# DNA 2: TGGTGGCTACGACGGGATT
# B14: CUAAAUU (DNA:RNA)
# RNA: B1 RNA with A26U, U27A, G29A, C30U, C31U
# DNA 1: CAATCTGAATTCCGGTCTCCC
# DNA 2: TGGTGGCTACGACGGGATT
# B15: UUUUCGG (DNA:RNA)
# RNA: B7 RNA with G25U, G27U, C28U, U29C
# DNA 1: CAATCTGAATTCCGGTCTCCC
# DNA 2: TGGTGGCTACGACGGGATT
# B16: ACAGCGG (DNA:RNA)
# RNA: B7 RNA with G25A, U26C, G27A, C28G, U29C
# DNA 1: CAATCTGAATTCCGGTCTCCC
# DNA 2: TGGTGGCTACGACGGGATT
# B17: CUUCGAA (DNA:RNA)
# RNA: B1 RNA with A26U, A28C, C30A, C31A
# DNA 1: CAATCTGAATTCCGGTCTCCC
# DNA 2: TGGTGGCTACGACGGGATT
# B18: CCAGCAA (DNA:RNA)
# RNA: B1 RNA with A26C, U27A, A28G, G29C, C30A, C31A
# DNA 1: CAATCTGAATTCCGGTCTCCC
# DNA 2: TGGTGGCTACGACGGGATT
# B19: UGUAUGA (DNA:RNA)
# RNA: B1 RNA with C25U, A26G, G29U, C30G, C31A
# DNA 1: CAATCTGAATTCCGGTCTCCC
# DNA 2: TGGTGGCTACGACGGGATT
# B20: AUGCGAU (DNA:RNA)
# RNA: B7 RNA with G25A, U29G, G30A, G31U
# DNA 1: CAATCTGAATTCCGGTCTCCC
# DNA 2: TGGTGGCTACGACGGGATT
# B21: UAACUUU (DNA:RNA)
# RNA: B7 RNA with G25U, U26A, G27A, G30U, G31U
# DNA 1: CAATCTGAATTCCGGTCTCCC
# DNA 2: TGGTGGCTACGACGGGATT
# B22: CUAUAAU (DNA:RNA)
# RNA: B1 RNA with A26U, U27A, A28U, G29A, C30A, C31U
# DNA 1: CAATCTGAATTCCGGTCTCCC
# DNA 2: TGGTGGCTACGACGGGATT
# B23: GUCGUAG (DNA:RNA)
# RNA: B7 RNA with G27C, C28G, G30A
# DNA 1: CAATCTGAATTCCGGTCTCCC
# DNA 2: TGGTGGCTACGACGGGATT
# B24: UAACUAG (DNA:RNA)
# RNA: B7 RNA with G25U, U26A, G27A, G30A
# DNA 1: CAATCTGAATTCCGGTCTCCC
# DNA 2: TGGTGGCTACGACGGGATT
# B25: AUCCUCC (DNA:RNA)
# RNA: B7 RNA with G25A, G27C, G30C, G31C
# DNA 1: CAATCTGAATTCCGGTCTCCC
# DNA 2: TGGTGGCTACGACGGGATT
# B26: CCGGUUG (DNA:RNA)
# RNA: B7 RNA with G25C, U26C, C28G, G30U
# DNA 1: CAATCTGAATTCCGGTCTCCC
# DNA 2: TGGTGGCTACGACGGGATT
# B27: CCACGAA (DNA:RNA)
# RNA: B1 RNA with A26C, U27A, A28C, C30A, C31A
# DNA 1: CAATCTGAATTCCGGTCTCCC
# DNA 2: TGGTGGCTACGACGGGATT
# B28: CUUUUUC (DNA:RNA)
# RNA: B1 RNA with A26U, A28U, G29U, C30U
# DNA 1: CAATCTGAATTCCGGTCTCCC
# DNA 2: TGGTGGCTACGACGGGATT
# B29: GACGGCU (DNA:RNA)
# RNA: B1 RNA with C25G, U27C, A28G, C31U
# DNA 1: CAATCTGAATTCCGGTCTCCC
# DNA 2: TGGTGGCTACGACGGGATT
# B30: AUUCGCA (DNA:RNA)
# RNA: B1 RNA with C25A, A26U, A28C, C31A
# DNA 1: CAATCTGAATTCCGGTCTCCC
# DNA 2: TGGTGGCTACGACGGGATT
# B31: UAAUAUC (DNA:RNA)
# RNA: B1 RNA with C25U, U27A, A28U, G29A, C30U
# DNA 1: CAATCTGAATTCCGGTCTCCC
# DNA 2: TGGTGGCTACGACGGGATT
# Biological target: T1, RBFOX1 RRM
# Assay: EMSA; HiTS-Eq, 1 nM pool, 10 min; buffer printed only for the single-RNA assays: 10 mM Tris pH 7.5, 150 mM NaCl, 3.4 mM EDTA, 0.001% NP-40, 30 C
# Settings: tags: His6 N-terminal (pET28a); label: 5' 32P
# Method in brief: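 These values rest on relative association constants, computed from read-count changes of each RNA species versus the control reaction and normalised to the cognate motif. Reads came from free RNA recovered by 8% native PAGE after purified RbFox RRM (wild type or mutant) at increasing concentrations was equilibrated for 10 min in 50 µL with 1 nM of a 5′-radiolabelled pool with 7 randomized nucleotides and DNA-annealed flanks.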
row,Binder,binding signal
1,B1,0.00373 KA relative to UGCAUGU
2,B2,0.0185 KA relative to UGCAUGU
3,B3,0.0108 KA relative to UGCAUGU
4,B4,0.017 KA relative to UGCAUGU
5,B5,0.00286 KA relative to UGCAUGU
6,B6,0.0166 KA relative to UGCAUGU
7,B7,0.0295 KA relative to UGCAUGU
8,B8,0.012 KA relative to UGCAUGU
9,B9,0.00208 KA relative to UGCAUGU
10,B10,0.0014 KA relative to UGCAUGU
11,B11,0.00496 KA relative to UGCAUGU
12,B12,0.0045 KA relative to UGCAUGU
13,B13,0.0123 KA relative to UGCAUGU
14,B14,0.00392 KA relative to UGCAUGU
15,B15,0.0135 KA relative to UGCAUGU
16,B16,0.00644 KA relative to UGCAUGU

row,Binder,binding signal
1,B17,0.0115 KA relative to UGCAUGU
2,B18,0.00261 KA relative to UGCAUGU
3,B19,0.0267 KA relative to UGCAUGU
4,B20,0.00995 KA relative to UGCAUGU
5,B21,0.00864 KA relative to UGCAUGU
6,B22,0.00317 KA relative to UGCAUGU
7,B23,0.0144 KA relative to UGCAUGU
8,B24,0.00442 KA relative to UGCAUGU
9,B25,0.00195 KA relative to UGCAUGU
10,B26,0.0151 KA relative to UGCAUGU
11,B27,0.00651 KA relative to UGCAUGU
12,B28,0.0113 KA relative to UGCAUGU
13,B29,0.0202 KA relative to UGCAUGU
14,B30,0.0111 KA relative to UGCAUGU
15,B31,0.00758 KA relative to UGCAUGU

# — paper PMC9911399, “Two distinct binding modes provide the RNA-binding protein RbFox with extraordinary sequence specificity”
